PubChem BioAssay (Tox21)
Several values for one entry are separate records, joined by “and”; a condition that tells them apart may be missing. Identical values can stand only once. The inconclusive results got no clear call from the source; some entries with a clear call stand among them for comparison. A potency beside an inconclusive call is a rough fit, not a confirmed value. Where a structure was tested more than once in an assay, its records may differ in their call. Activity calls are given as the source filed them. Unless noted, calls follow the shape of the dose curve; as a rule, active = well fitted cell-killing curve with a large enough effect in the repeat runs; inconclusive = weak or mixed curves, or effect the other way; inactive = no such curve, though single readings can be large or run the other way.

Test: qHTS assay to identify small molecule agonists of the endoplasmic reticulum stress response signaling pathway (AID 1159516; active = well fitted activation curve with a large enough effect in the signal ratio in the repeat runs, not every such curve was filed as active; inconclusive = weak or mixed curves, or effect the other way; the % refers to the signal ratio; as to activation: % is scaled to controls: 0 for no effect and ±100 for the full control effect)
Conditions: ESRE-bla HeLa, ER stress beta-lactamase reporter, 5 h; activation: at 61 µM (top of the series) unless noted
Method in brief: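 Tox21 10K library screened in quantitative HTS format on ESRE-bla HeLa cells, a beta-lactamase reporter under ER stress response element control; 5 hr treatment, FRET read.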
Potency is read from the fitted curve at half-maximal effect; tags tell the direction and shape of the fitted curve or compound fluorescence and quenching.

| Compound | Potency | activation |
| --- | --- | --- |
| Nc1ccc(S(=O)(=O)Nc2cnc3ccccc3n2)cc1 | inactive | – |
| Nc1ccc(Nc2ccccc2)cc1 | inconclusive: 49 µM [cytotoxic, partial curve] | inconclusive: -2.25% |
| O=C(Nc1ccccc1SSc1ccccc1NC(=O)c1ccccc1)c1ccccc1 | inconclusive: 19.6 µM and inconclusive: 54.9 µM | – |
| Clc1ccc2c(c1)C(N1CCNCC1)=Nc1ccccc1O2 | inconclusive: 17.4 µM [falling, full curve] and inconclusive: 9.52 µM [falling, full curve] | – |
| O=Nc1ccc(Nc2ccccc2)cc1 | inconclusive: 22 µM [rising, single point] | – |
| Nc1ccc2c(c1)C(=O)c1ccccc1C2=O | – | inconclusive: -7.7% |
| COc1ccc(OC)c(C(O)CNC(=O)CN)c1 (stereo unspecified) | inconclusive: 54.9 µM [activator, single point] | – |
| BrC1CCC(Br)C(Br)CCC(Br)C(Br)CCC1Br (stereo unspecified) | inconclusive: 54.7 µM [single point] and inconclusive: 52.2 µM [activator, single point] | – |
| CC(C)(c1ccccc1)c1ccc(Nc2ccc(C(C)(C)c3ccccc3)cc2)cc1 | inconclusive: 48.9 µM [cytotoxic, partial curve] and inconclusive: 49 µM [cytotoxic, partial curve] | – |
| Cc1ccc(C(C)(C)C)c(O)c1 | inconclusive: 47.4 µM [falling, single point] | – |

Test: qHTS assay to identify small molecule agonists of the endoplasmic reticulum stress response signaling pathway - cell viability counter screen (AID 1159517; calls by dose curve; also: nearly all actives have a fitted effect of over 50% in size)
Conditions: ESRE-bla HeLa viability, CellTiter-Glo luminescence, 5 h; series mostly up to 61 µM
Method in brief: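 ESRE-bla HeLa cells, 1,500 per well, seeded overnight then treated with compounds for 5 hr at 37 C. After the beta-lactamase read, viability in the same wells is measured by CellTiter-Glo luminescence after 30 min at room temperature.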

| Compound | Potency |
| --- | --- |
| CN(C)CCCN1c2ccccc2CCc2ccc(Cl)cc21 | inconclusive: 54.9 µM [cytotoxic] |
| Oc1c(Cl)cc(Cl)c(Cl)c1Cc1c(O)c(Cl)cc(Cl)c1Cl | active: 17.3 µM and active: 49 µM and inconclusive: 239 nM [cytotoxic, full curve, poor fit] |
| C#C[C@]1(O)CC[C@H]2[C@@H]3CCC4=CC(=O)CC[C@@H]4[C@H]3CC[C@@]21CC | inconclusive: 21.9 µM [cytotoxic, single point] |
| Cc1ccc(N)c(S(=O)(=O)O)c1 | inconclusive: 19.5 µM [rising, single point] |
| CCn1c2ccccc2c2cc(N)ccc21 | inconclusive: 12.3 µM [cytotoxic, partial curve, poor fit] |
| O=Nc1ccc(Nc2ccccc2)cc1 | inconclusive: 31.1 µM [cytotoxic, partial curve, poor fit] and inconclusive: 54.9 µM [cytotoxic, single point] |
| Cc1ccc(-c2cc(C(F)(F)F)nn2-c2ccc(S(N)(=O)=O)cc2)cc1 | inconclusive: 54.7 µM [cytotoxic, single point] and inconclusive: 61.6 µM [cytotoxic, single point] |
| CC/C(=C(\c1ccccc1)c1ccc(OCCN(C)C)cc1)c1ccccc1 | active: 43.6 µM [middle of 5 runs] |
| Clc1ccc(C(c2ccccc2Cl)C(Cl)Cl)cc1 (stereo unspecified) | active: 49 µM and inconclusive: 26.8 µM [cytotoxic, single point] |
| CCN(CC)C(=S)SSC(=S)N(CC)CC | inconclusive: 0.0794 µM [cytotoxic, full curve, poor fit] |
| Oc1ccc(Cl)cc1Cc1cc(Cl)ccc1O | inconclusive: 49.9 µM [cytotoxic, single point] and active: 54.9 µM |
| CC(C)(C)c1cccc(C(C)(C)C)c1O | inconclusive: 34.7 µM [cytotoxic, partial curve, poor fit] |
| COC(=O)c1c(Cl)c(Cl)c(C(=O)OC)c(Cl)c1Cl | inconclusive: 0.309 µM [cytotoxic, partial curve, poor fit] |
| CC1=C(/C=C/C(C)=C/C=C/C(C)=C/C(=O)Nc2ccc(O)cc2)C(C)(C)CCC1 | inconclusive: 56.4 µM [cytotoxic, single point] and inconclusive: 1.7 nM [cytotoxic, full curve, poor fit] |

Test: qHTS assay to identify small molecule antagonists of the retinoid-related orphan receptor gamma (ROR-gamma) signaling pathway - cell viability counter screen (AID 1159520); also: nearly all actives have a fitted effect of over 50% in size
Conditions: Tet-on RORgamma CHO cells viability, ATP luminescence, 16 h; series mostly up to 92.4 µM
Method in brief: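 Tet-on ROR gamma CHO cells were given compounds for 2 hr, then doxycycline hyclate at 1 uM final, and incubated 16 hr at 37 C. Viability was measured as ATP content by CellTiter-Glo luminescence.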

| Compound | Potency |
| --- | --- |
| CN(C)CCCN1c2ccccc2CCc2ccc(Cl)cc21 | inconclusive: 61.1 µM [cytotoxic, partial curve, poor fit] |
| Oc1c(Cl)cc(Cl)c(Cl)c1Cc1c(O)c(Cl)cc(Cl)c1Cl | active: 1.53 µM and active: 1.93 µM and active: 1.68 µM |
| CCCCCC(=O)O[C@]1(C(C)=O)CC[C@H]2[C@@H]3CCC4=CC(=O)CC[C@]4(C)[C@H]3CC[C@@]21C | active: 60.7 µM and inconclusive: 33.5 µM [cytotoxic, partial curve, poor fit] |
| COc1ccc(C(Cl)=C(c2ccc(OC)cc2)c2ccc(OC)cc2)cc1 | inactive |
| O=C(c1ccc(O)cc1O)c1ccc(O)cc1O | inconclusive: 68.6 µM [cytotoxic, partial curve, poor fit] |
| Nc1nc(N)c2nc(-c3ccccc3)c(N)nc2n1 | inconclusive: 77.8 µM [cytotoxic, partial curve, poor fit] |
| O=C(Nc1ccccc1SSc1ccccc1NC(=O)c1ccccc1)c1ccccc1 | inconclusive: 7.74 µM [cytotoxic, partial curve, poor fit] and active: 24.3 µM |
| Cc1ccc(-c2cc(C(F)(F)F)nn2-c2ccc(S(N)(=O)=O)cc2)cc1 | inconclusive: 33.5 µM [cytotoxic, partial curve, poor fit] |
| Nc1ccc2c(c1)C(=O)c1ccccc1C2=O | inconclusive: 53.5 µM [cytotoxic, partial curve, poor fit] and inconclusive: 68.6 µM [cytotoxic, partial curve, poor fit] |
| BrC1CCC(Br)C(Br)CCC(Br)C(Br)CCC1Br (stereo unspecified) | active: 43.1 µM and inconclusive: 51.7 µM [cytotoxic, partial curve] |
| CC/C(=C(\c1ccccc1)c1ccc(OCCN(C)C)cc1)c1ccccc1 | active: 43.3 µM [middle of 5 runs] |
| COC(=O)C1=C(C)NC(C)=C(C(=O)OC)C1c1ccccc1[N+](=O)[O-] | inconclusive: 68.7 µM [cytotoxic, partial curve, poor fit] |
| Clc1ccc(C(c2ccccc2Cl)C(Cl)Cl)cc1 (stereo unspecified) | inconclusive: 68.6 µM [cytotoxic, single point] |
| CCN(CC)C(=S)SSC(=S)N(CC)CC | inconclusive: 0.168 µM [cytotoxic, full curve] |
| Oc1ccc(Cl)cc1Cc1cc(Cl)ccc1O | active: 24.8 µM and inconclusive: 15.4 µM [cytotoxic, partial curve] and inconclusive: 18.8 µM [cytotoxic, partial curve, poor fit] |
| CC(C)(C)c1cccc(C(C)(C)C)c1O | inconclusive: 67.1 µM [cytotoxic, partial curve, poor fit] |
| COC(=O)c1c(Cl)c(Cl)c(C(=O)OC)c(Cl)c1Cl | inconclusive: 54.5 µM [cytotoxic, partial curve] |
| COC(=O)C1=C(C)NC(C)=C(C(=O)OCC(C)C)C1c1ccccc1[N+](=O)[O-] (stereo unspecified) | active: 43.3 µM |
| CN(C)C(=S)SC(=S)N(C)C | inconclusive: 7.03 µM [cytotoxic, full curve] and inconclusive: 864 nM [cytotoxic, full curve] |
| Cc1ccc(C(C)(C)C)c(O)c1 | inconclusive: 61.1 µM [cytotoxic, single point] |
| CC(C)(C)NC(=O)[C@H]1CC[C@H]2[C@@H]3CC[C@H]4NC(=O)C=C[C@]4(C)[C@H]3CC[C@]12C | inactive |
